This note sets out measurements from the supplement of paper PMC5655136.

Values come from read counts of a selection and are noisy.
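Further: shRNA barcodes quantified by deep sequencing of PCR amplicons from cellular DNA, counts expressed as percent of each subpool, ratio averaged over two biological duplicates.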

One data set has as its system NB7. Nature of the data set: fold depletion of shRNA, plasmid library share / infected cells without Dox share (9 days) (ratio); higher = more depleted after infection (more toxic, leaky expression from a Tet-inducible vector; NB7 is a neuroblastoma line without caspase-8). To be noted: shRNA pool: CD95L ORF + CD95L 3'UTR + Venus libraries.
With GGCCACCACCACCACCGCCAC, the “fold depletion of shRNA” value was 0.429.
For ACGGCGGCGTGCAGCTCGCCG, the “fold depletion of shRNA” value was found to be 0.604.
Same read-out and setting: next, ACCGCCACCGCCACCACTACC: 3.34.
Still for that read-out and setting: next, TGTCTCCTTGTGATGTTTTTC: 1.63; TGGGTTGCATTTGGTCAAGAT: 0.597; TGATTCTTTGTTACAGGCACC: 5.99.
On the same count and under the same terms, as for TCCAACTCAAGGTCCATGCCT, the figure is 3.58; as for GGGGATGTTTCAGCTCTTCCA, 1.1; as for CTAAGTATCCCCAGGATCTGG, 1.01.
Regarding GCAATTGTAGGGGTGTGTGTG, the “fold depletion of shRNA” value was 2.52.
The same measure, in the same setting: next, GGCGACACCCTGGTGAACCGC: 0.398; CATTTTTGTGAAATGAAAACA: 0.7.
On the same count and under the same terms, as for TTTAGGCAGATTGAAAAGGAC, the figure is 1; as for GCCACAACGTCTATATCACCG, 4.92; as for TTCATTCCTAACACAGCATGT, 0.981.
For the sequence TACCAGCAGAACACCCCCATC, the “fold depletion of shRNA” value was found to be 1.53.
With CATGGACGAGCTGTACAAGTA, the “fold depletion of shRNA” value amounted to 1.02.
On the same count and under the same terms, next, CCATGTGAAGAGGGAGAAGCA: 2.34; CACATGGTCCTGCTGGAGTTC: 1.37.
Same read-out and setting: next, GCCCAGAAGGCCTGGTCAAAG: 2.55.
The same measure, in the same setting: next, GCAACATCCTGGGGCACAAGC: 1.6; AGGAATATGACGGAAGAACAT: 6.08; CATCGGCGACGGCCCCGTGCT: 0.944.

Still in this data set, the particulars now being: shRNA pool: CD95 ORF + CD95 3'UTR + Venus libraries.
Turning to ACGGCGGCGTGCAGCTCGCCG, the “fold depletion of shRNA” value came to 0.649.
Turning to GAACCACCTAAAGAACTTCCA, the “fold depletion of shRNA” value worked out at 1.01.
Take GAAAGTAGCTTTGTGACATGT: the “fold depletion of shRNA” value came out at 0.886.
Consider TTACTGGGTACATTTTATCAT, for which the “fold depletion of shRNA” value worked out at 1.13.
Same read-out and setting: next, TCCTACCTCTGGTTCTTACGT: 2.29.
Still for that read-out and setting: next, AAGAGAAAGGAAGTACAGAAA: 0.974.
Regarding TAAATACTGCTTGGTTTTTTA, the “fold depletion of shRNA” value was 1.42.
Still for that read-out and setting: as for ACCACCTAAAGAACTTCCATT, the figure is 1.72; as for TAAATGTGAATTTTAAGAAAT, 1.24.
With ACAGCAGAACAGAAAGTTCAA, the “fold depletion of shRNA” value was found to be 1.
Still for that read-out and setting: next, TCATGACACTAAGTCAAGTTA: 0.619; AATTGTGAATTCACATAGAAA: 0.715.
Still for that read-out and setting: as for CATTGATTAAAGATCTCAAAA, the figure is 0.708; as for AATAATATTTATATTTCTGTA, 0.989.
The same measure, in the same setting: as for GTTTGAAAAGATTCTTAATAG, the figure is 0.791; as for TGTTGCTAGATTATCGTCCAA, 1.4.
As to TACAACTACAACAGCCACAAC, the “fold depletion of shRNA” value worked out at 5.4.
On the same count and under the same terms, next, AGGACATGGCTTAGAAGTGGA: 1.26.
On the same count and under the same terms, next, GGCGACACCCTGGTGAACCGC: 2.73; AGTTAAAGGCTTTGTTCGAAA: 0.916; TATGCAATTAGTGTTTGAAAA: 1.63.
Consider TTTGAGTGCAGAATTTAAATA, for which the “fold depletion of shRNA” value was 1.2.
Take GCCACAACGTCTATATCACCG: the “fold depletion of shRNA” value was 1.55.
Still for that read-out and setting: as for AGCGTGTCCGGCGAGGGCGAG, the figure is 1.51; as for TGAAAGTTTGTATTAAATGTG, 1.31.
For the sequence AGCACAGAAAGGAAAACCAAG, the “fold depletion of shRNA” value came to 0.771.
For the sequence TACCAGCAGAACACCCCCATC, the “fold depletion of shRNA” value came to 1.05.
The same measure, in the same setting: as for GTAGATTGTGTGATGAAGGAC, the figure is 2.38; as for CATGGACGAGCTGTACAAGTA, 0.865.
Same read-out and setting: next, AACTCTGAGAAGATCATATTT: 1.22.
Consider CACATGGTCCTGCTGGAGTTC, for which the “fold depletion of shRNA” value amounted to 1.09.
With GCAACATCCTGGGGCACAAGC, the “fold depletion of shRNA” value is 1.71.
